PMC6713926, “Structural Basis for Properdin Oligomerization and Convertase Stimulation in the Human Complement System” (Frontiers in Immunology, 2019)

Key:
[1] = biological target: T1, C3b (human, UniProt P01024 23-667; P01024 in part); assay: BLI; miniFH amine-coupled on AR2G sensors; FP (94 nM), C3b (280 nM) or a mixture of both; 30°C; PBS, 1 mg/mL BSA, 0.05% Tween 20; FP ~90% dimer and 10% trimer; settings: both partners purified
T1 construct: complement C3, human, beta chain; complement C3, human, alpha' chain of C3b, ends at Asn1663; also called C3b fragment

[2] = biological target: the molecule itself; assay: SEC; FP variants eluted from hFPNb1/Ni-NTA beads run on Superdex200 increase in 20 mM HEPES, 150 mM NaCl, pH 7.5; fractions analysed by western blot with anti-FP
[3] = biological target: T2, Biotinylated C3b (human, UniProt P01024 23-667; P01024 in part, biotin (Maleimide-PEG2-Biotin)); assay: BLI; biotinylated C3b on streptavidin sensors; FB variants at 40 μg/mL; 20 mM MES pH 6.0, 100 mM NaCl, 0.05% Tween, 1 mg/mL BSA, 5 mM MgCl2; settings: both partners purified
T2 construct: complement C3, human, beta chain; complement C3, human, alpha' chain of C3b; also called biotin-C3b; immobilized C3b; source: made from plasma C3 by trypsin cleavage in the presence of Maleimide-PEG2-Biotin, purified by cation exchange

Chain of C3b (P01024 23-667, chain 1 of 2): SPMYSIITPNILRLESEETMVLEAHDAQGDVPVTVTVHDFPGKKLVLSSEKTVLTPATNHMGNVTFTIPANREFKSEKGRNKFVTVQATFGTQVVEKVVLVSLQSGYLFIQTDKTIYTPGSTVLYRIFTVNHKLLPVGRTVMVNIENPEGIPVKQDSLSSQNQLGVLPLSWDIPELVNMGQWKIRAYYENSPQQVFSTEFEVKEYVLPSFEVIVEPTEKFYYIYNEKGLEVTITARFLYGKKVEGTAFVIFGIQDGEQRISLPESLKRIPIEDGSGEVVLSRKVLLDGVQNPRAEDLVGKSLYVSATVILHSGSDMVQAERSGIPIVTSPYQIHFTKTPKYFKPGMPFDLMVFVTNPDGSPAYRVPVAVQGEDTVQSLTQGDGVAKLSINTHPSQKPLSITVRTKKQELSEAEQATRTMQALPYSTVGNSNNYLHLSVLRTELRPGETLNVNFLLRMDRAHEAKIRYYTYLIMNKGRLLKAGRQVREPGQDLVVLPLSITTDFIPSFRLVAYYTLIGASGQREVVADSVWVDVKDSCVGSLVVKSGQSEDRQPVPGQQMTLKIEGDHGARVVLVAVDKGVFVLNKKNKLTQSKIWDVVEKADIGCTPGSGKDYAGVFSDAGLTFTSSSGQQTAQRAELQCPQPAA
Chain of C3b (P01024 749-1663, chain 2 of 2): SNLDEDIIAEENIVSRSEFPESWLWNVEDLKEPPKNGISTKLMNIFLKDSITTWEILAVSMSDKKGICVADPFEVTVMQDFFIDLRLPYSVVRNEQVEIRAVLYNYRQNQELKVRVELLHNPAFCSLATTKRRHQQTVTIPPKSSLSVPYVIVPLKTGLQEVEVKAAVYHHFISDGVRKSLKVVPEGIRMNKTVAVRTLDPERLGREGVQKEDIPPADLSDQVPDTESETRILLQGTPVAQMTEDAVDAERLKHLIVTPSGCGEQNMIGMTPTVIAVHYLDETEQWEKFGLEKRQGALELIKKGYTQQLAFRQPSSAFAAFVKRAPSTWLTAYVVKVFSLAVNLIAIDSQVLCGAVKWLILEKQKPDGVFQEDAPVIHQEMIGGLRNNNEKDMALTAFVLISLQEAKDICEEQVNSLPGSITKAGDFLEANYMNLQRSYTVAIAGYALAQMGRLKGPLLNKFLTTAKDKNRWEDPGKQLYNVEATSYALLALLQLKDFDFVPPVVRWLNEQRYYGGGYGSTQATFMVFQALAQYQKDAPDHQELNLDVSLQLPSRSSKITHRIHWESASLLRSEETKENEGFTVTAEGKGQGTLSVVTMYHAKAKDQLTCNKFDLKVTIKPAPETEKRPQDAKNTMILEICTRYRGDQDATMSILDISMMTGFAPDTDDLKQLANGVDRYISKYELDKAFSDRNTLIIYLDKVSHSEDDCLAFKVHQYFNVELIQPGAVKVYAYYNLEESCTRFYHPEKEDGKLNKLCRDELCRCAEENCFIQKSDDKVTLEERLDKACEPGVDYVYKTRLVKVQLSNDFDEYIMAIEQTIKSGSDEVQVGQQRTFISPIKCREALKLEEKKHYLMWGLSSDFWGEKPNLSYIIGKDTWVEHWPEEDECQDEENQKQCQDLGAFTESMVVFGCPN

Binder	binding result [2]	also measured
WT FP, recombinant oligomeric properdin (natural protein, human, UniProt P27918 28-469, looked up, properdin (FP), human, wild type; Secreted oligomers; preparations of ~50% dimer and 50% trimer, and of ~90% dimer and 10% trimer, were used; also called oligomeric FP; dimeric FP; source: also in cell supernatant) DPVLCFTQYEESSGKCKGLLGGGVSVEDCCLNTAFAYQKRSGGLCQPCRSPRWSLWSTWAPCSVTCSEGSQLRYRRCVGWNGQCSGKVAPGTLEWQLQACEDQQCCPEMGGWSGWGPWEPCSVTCSKGTRTRRRACNHPAPKCGGHCPGQAQESEACDTQQVCPTHGAWATWGPWTPCSASCHGGPHEPKETRSRKCSAPEPSQKPPGKPCPGLAYEQRRCTGLPPCPVAGGWGPWGPVSPCPVTCGLGQTMEQRTCNHPVPQHGGPFCAGDATRTHICNTAVPCPVDGEWDSWGEWSPCIRRNMKSISCQEIPGQQSRGRTCRGRKFDGHRCAGQQQDIRHCYSIQHCPLKGSWSEWSTWGLCMPPCGPNPTRARQRLCTPLLPKYPPTVSMVEGQGEKNVTFWGRPLPRCEELQGQKLVVEEKRPCLHVPACKDPEEEEL		binding result [1]: binds
FP E244A (natural protein, human, UniProt P27918 28-469, looked up, properdin (FP), human) DPVLCFTQYEESSGKCKGLLGGGVSVEDCCLNTAFAYQKRSGGLCQPCRSPRWSLWSTWAPCSVTCSEGSQLRYRRCVGWNGQCSGKVAPGTLEWQLQACEDQQCCPEMGGWSGWGPWEPCSVTCSKGTRTRRRACNHPAPKCGGHCPGQAQESEACDTQQVCPTHGAWATWGPWTPCSASCHGGPHEPKETRSRKCSAPEPSQKPPGKPCPGLAYAQRRCTGLPPCPVAGGWGPWGPVSPCPVTCGLGQTMEQRTCNHPVPQHGGPFCAGDATRTHICNTAVPCPVDGEWDSWGEWSPCIRRNMKSISCQEIPGQQSRGRTCRGRKFDGHRCAGQQQDIRHCYSIQHCPLKGSWSEWSTWGLCMPPCGPNPTRARQRLCTPLLPKYPPTVSMVEGQGEKNVTFWGRPLPRCEELQGQKLVVEEKRPCLHVPACKDPEEEEL	binds	
FP E244Q (natural protein, human, UniProt P27918 28-469, looked up, properdin (FP), human) DPVLCFTQYEESSGKCKGLLGGGVSVEDCCLNTAFAYQKRSGGLCQPCRSPRWSLWSTWAPCSVTCSEGSQLRYRRCVGWNGQCSGKVAPGTLEWQLQACEDQQCCPEMGGWSGWGPWEPCSVTCSKGTRTRRRACNHPAPKCGGHCPGQAQESEACDTQQVCPTHGAWATWGPWTPCSASCHGGPHEPKETRSRKCSAPEPSQKPPGKPCPGLAYQQRRCTGLPPCPVAGGWGPWGPVSPCPVTCGLGQTMEQRTCNHPVPQHGGPFCAGDATRTHICNTAVPCPVDGEWDSWGEWSPCIRRNMKSISCQEIPGQQSRGRTCRGRKFDGHRCAGQQQDIRHCYSIQHCPLKGSWSEWSTWGLCMPPCGPNPTRARQRLCTPLLPKYPPTVSMVEGQGEKNVTFWGRPLPRCEELQGQKLVVEEKRPCLHVPACKDPEEEEL	binds	
Recombinant FB D279G, S699A (enzyme, human, UniProt P00751 26-764, looked up, complement factor B (FB), human; also called FB KLK; 348-KLK-350) TPWSLARPQGSCSLEGVEIKGGSFRLLQEGQALEYVCPSGFYPYPVQTRTCRSTGSWSTLKTQDQKTVRKAECRAIHCPRPHDFENGEYWPRSPYYNVSDEISFHCYDGYTLRGSANRTCQVNGRWSGQTAICDNGAGYCSNPGIPIGTRKVGSQYRLEDSVTYHCSRGLTLRGSQRRTCQEGGSWSGTEPSCQDSFMYDTPQEVAEAFLSSLTETIEGVDAEDGHGPGEQQKRKIVLDPSGSMNIYLVLDGSGSIGASNFTGAKKCLVNLIEKVASYGVKPRYGLVTYATYPKIWVKVSEADSSNADWVTKQLNEINYEDHKLKSGTNTKKALQAVYSMMSWPDDVPPEGWNRTRHVIILMTDGLHNMGGDPITVIDEIRDLLYIGKDRKNPREDYLDVYVFGVGPLVNQVNINALASKKDNEQHVFKVKDMENLEDVFYQMIDESQSLSLCGMVWEHRKGTDYHKQPWQAKISVIRPSKGHESCMGAVVSEYFVLTAAHCFTVDDKEHSIKVSVGGEKRDLEIEVVLFHPNYNINGKKEAGIPEFYDYDVALIKLKNKLKYGQTIRPICLPCTEGTTRALRLPPTTTCQQQKEELLPAQDIKALFVSEEEKKLTRKEVYIKNGDKKGSCERDAQYAPGYDKVKDISEVVTPRFLCTGGVSPYADPNTCRGDAGGPLIVHKRSRFIQVGVISWGVVDVCKNQKRQKQVPAHARDFHINLFQVLPWLKEKLQDEDLGFL		binding result [3]: binds
